Data from article PMC7641331, “Ctf18-RFC and DNA Pol ϵ form a stable leading strand polymerase/clamp loader complex required for normal and perturbed DNA replication” (Nucleic Acids Research, 2019).
Results are given in words; binding and its absence hold for the method and conditions named. In cells and extracts the contact can be indirect. Some entries that bind do so weakly or less than the wild type.

Chains of the proteins cited; added tags and fusions are not shown. Lines headed by an entry give the natural chain unless they say otherwise; changes in a name come on top. A line that says so, or that is headed by a name, gives the form on record, which may keep a tag or linker.
UniProt Q07864: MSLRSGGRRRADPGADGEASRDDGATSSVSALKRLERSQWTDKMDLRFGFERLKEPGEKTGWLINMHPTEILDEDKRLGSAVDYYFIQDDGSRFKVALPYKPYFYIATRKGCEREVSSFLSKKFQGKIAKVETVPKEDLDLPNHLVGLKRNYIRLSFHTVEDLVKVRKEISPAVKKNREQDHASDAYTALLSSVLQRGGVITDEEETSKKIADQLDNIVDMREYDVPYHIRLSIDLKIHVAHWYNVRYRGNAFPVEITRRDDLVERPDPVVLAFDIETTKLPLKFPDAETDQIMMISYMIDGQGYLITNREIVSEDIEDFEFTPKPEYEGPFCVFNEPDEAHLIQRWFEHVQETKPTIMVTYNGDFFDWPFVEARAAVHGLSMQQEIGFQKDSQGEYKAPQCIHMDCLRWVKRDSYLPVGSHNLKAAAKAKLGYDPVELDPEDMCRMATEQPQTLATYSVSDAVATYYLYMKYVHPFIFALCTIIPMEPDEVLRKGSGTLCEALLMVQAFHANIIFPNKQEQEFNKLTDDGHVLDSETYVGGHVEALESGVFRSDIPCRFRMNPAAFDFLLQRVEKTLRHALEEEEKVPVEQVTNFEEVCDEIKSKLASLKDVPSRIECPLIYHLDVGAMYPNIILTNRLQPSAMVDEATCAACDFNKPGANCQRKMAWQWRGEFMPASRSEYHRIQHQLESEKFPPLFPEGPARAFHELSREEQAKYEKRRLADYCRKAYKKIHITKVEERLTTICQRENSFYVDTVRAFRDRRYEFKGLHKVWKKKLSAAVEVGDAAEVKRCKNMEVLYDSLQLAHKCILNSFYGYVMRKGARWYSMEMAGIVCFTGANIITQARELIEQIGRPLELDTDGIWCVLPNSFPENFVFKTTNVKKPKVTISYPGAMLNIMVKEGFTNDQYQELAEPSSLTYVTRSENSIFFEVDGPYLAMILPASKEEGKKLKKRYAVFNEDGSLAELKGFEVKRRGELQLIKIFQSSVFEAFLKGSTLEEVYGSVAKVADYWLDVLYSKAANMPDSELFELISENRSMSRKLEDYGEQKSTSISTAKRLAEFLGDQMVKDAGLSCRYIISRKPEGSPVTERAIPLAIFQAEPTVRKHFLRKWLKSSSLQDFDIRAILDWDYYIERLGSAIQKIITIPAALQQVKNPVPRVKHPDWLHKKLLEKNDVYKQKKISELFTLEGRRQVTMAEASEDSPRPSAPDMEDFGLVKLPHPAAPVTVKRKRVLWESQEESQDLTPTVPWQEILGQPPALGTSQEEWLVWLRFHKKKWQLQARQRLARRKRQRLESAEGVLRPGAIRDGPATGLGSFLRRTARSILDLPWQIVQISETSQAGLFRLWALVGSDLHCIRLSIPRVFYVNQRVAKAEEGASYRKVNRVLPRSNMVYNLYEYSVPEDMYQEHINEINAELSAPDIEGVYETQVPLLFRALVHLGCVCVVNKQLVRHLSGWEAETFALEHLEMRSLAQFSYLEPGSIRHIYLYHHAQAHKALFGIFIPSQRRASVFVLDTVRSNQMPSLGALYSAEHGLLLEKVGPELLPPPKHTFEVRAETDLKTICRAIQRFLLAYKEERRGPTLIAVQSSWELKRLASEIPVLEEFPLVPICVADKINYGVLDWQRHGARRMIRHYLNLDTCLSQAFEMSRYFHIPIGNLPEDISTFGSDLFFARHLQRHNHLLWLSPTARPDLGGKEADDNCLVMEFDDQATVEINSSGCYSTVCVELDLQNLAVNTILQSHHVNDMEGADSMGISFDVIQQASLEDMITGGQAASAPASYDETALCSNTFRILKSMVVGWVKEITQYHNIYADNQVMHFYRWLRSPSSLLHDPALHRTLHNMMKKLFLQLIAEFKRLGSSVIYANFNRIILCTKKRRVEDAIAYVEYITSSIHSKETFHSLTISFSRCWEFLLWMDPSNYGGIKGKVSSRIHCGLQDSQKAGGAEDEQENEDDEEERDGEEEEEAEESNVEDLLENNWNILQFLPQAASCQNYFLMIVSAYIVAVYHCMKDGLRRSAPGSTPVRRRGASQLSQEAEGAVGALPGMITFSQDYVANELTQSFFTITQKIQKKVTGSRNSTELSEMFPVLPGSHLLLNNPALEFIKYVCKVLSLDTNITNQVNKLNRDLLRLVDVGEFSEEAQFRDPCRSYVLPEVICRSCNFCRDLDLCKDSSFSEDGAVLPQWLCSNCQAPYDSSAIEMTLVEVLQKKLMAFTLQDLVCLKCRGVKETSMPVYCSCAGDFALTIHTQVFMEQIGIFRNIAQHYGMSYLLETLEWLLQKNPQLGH
POLE1 pole1-5A (pole1 315-AAIAAFA-321) with an N-terminal GFP tag (Q07864, form named): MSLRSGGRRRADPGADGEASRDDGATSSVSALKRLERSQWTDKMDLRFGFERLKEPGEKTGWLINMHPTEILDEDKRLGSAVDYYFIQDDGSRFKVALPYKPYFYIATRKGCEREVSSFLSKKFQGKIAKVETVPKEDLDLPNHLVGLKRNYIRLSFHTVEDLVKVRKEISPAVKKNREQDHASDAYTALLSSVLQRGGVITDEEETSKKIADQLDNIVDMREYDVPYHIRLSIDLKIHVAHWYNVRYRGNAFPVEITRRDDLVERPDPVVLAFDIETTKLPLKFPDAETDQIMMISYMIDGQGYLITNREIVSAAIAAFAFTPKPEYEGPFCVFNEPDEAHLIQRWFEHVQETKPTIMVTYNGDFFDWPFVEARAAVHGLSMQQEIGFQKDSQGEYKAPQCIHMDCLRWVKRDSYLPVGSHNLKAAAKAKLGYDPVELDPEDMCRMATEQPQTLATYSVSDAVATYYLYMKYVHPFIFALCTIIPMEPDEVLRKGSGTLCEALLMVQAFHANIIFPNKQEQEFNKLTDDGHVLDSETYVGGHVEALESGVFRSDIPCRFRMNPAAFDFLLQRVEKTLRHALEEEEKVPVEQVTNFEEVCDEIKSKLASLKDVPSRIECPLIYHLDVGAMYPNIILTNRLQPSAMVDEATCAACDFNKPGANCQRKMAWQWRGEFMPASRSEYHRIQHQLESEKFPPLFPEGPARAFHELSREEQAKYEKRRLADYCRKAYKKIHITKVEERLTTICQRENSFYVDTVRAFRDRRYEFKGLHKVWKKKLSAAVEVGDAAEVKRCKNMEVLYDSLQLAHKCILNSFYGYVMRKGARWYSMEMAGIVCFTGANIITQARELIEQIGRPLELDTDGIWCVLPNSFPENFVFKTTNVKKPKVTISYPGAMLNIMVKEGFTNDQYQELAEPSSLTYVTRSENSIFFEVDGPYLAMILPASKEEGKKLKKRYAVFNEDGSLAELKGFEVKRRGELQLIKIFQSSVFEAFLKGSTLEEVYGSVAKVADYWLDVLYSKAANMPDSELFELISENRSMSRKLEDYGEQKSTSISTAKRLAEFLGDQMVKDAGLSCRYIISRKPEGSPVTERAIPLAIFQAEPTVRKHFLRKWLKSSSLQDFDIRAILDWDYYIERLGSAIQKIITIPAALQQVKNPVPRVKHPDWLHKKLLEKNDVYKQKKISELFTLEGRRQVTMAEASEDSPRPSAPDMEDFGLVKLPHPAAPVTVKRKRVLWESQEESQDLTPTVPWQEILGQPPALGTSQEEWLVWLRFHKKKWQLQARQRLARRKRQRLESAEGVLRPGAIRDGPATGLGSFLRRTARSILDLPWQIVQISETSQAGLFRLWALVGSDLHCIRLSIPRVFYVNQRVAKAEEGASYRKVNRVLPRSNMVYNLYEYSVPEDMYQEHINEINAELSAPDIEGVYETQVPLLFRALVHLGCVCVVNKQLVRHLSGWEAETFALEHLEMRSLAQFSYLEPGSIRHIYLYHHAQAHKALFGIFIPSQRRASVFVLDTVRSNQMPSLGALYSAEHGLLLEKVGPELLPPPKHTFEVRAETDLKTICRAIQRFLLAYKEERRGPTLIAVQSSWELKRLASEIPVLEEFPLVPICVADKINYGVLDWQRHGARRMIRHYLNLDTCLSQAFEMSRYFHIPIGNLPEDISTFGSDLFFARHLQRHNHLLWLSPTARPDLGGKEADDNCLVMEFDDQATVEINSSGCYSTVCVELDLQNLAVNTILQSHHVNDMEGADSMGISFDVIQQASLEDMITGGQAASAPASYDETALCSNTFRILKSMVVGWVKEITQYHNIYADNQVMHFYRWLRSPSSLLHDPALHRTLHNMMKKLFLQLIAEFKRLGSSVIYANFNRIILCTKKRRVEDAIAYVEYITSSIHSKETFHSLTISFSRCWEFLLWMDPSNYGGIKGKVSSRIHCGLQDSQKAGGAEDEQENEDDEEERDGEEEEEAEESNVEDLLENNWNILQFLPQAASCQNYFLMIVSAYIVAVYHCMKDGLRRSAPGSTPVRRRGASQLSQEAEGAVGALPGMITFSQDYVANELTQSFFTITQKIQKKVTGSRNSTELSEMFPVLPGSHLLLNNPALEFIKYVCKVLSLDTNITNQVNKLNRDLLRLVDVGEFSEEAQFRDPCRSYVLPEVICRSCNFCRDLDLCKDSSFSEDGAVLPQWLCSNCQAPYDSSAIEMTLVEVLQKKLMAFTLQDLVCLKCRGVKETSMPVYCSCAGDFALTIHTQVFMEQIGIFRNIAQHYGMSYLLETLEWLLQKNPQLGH
UniProt P24279: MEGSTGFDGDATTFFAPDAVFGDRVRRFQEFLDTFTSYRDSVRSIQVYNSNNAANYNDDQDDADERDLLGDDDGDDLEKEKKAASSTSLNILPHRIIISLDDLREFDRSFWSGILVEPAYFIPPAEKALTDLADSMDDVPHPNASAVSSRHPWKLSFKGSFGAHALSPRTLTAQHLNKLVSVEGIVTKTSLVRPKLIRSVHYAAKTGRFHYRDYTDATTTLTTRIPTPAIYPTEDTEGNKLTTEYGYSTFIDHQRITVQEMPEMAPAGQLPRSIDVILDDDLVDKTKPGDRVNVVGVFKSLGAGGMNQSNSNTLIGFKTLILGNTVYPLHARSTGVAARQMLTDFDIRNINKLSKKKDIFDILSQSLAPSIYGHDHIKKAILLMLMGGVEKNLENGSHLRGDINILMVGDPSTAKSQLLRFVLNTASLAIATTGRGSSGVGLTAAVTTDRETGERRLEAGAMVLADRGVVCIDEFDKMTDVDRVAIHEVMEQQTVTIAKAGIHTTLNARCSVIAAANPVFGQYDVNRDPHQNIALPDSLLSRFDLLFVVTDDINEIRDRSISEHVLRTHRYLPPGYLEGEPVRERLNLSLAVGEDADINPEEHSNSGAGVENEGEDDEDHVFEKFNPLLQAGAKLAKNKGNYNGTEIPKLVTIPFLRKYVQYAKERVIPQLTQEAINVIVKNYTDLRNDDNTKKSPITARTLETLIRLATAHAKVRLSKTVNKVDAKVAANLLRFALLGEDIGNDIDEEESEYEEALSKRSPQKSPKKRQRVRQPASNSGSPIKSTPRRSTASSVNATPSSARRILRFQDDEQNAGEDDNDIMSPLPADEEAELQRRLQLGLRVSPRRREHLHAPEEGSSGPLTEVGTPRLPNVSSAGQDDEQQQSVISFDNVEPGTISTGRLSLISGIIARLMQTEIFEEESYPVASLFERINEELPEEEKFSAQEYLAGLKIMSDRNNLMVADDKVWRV
UniProt Q8WVB6: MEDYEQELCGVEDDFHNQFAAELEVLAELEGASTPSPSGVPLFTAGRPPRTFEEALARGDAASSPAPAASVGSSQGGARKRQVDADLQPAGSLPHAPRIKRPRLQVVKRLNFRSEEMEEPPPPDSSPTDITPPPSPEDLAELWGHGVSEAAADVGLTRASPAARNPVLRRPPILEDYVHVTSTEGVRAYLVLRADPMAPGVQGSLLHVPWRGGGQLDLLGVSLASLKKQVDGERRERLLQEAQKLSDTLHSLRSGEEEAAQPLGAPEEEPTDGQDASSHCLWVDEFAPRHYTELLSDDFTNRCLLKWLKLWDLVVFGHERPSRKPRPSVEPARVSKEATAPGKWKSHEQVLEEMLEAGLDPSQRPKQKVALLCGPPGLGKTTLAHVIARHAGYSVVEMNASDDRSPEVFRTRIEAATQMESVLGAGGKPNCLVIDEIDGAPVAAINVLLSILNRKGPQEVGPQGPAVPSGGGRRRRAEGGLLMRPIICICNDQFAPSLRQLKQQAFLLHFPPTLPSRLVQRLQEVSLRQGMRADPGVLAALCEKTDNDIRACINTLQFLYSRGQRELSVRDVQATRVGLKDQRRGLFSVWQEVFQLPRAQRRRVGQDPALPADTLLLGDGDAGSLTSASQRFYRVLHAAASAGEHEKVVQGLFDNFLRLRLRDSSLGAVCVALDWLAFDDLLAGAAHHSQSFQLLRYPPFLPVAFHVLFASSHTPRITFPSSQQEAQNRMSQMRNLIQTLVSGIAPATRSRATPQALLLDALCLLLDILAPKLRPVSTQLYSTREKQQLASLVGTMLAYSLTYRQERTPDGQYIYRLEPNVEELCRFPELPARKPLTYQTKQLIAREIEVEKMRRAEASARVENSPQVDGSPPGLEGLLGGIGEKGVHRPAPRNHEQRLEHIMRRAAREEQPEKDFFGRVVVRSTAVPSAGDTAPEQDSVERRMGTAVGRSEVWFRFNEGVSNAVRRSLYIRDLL

Tests used:
[1] = biological target: POLE1 pole1-5A (pole1 315-AAIAAFA-321) with a C-terminal GFP tag (human) (UniProt Q07864); assay: co-IP; HeLa cells 48 h after transient transfection of GFP-tagged POLE1; nuclease-treated lysate (50 mM HEPES–KOH pH 7.5, 100 mM KAc, 0.1% Igepal); GFP TrapA beads; western blot
[2] = biological target: POLE1 with a C-terminal GFP tag, wild type (human) (UniProt Q07864); assay: as above
[3] = biological target: POLE1 with an N-terminal GFP tag, wild type (human) (UniProt Q07864); assay: as above
[4] = biological target: POLE1 pole1-5A (pole1 315-AAIAAFA-321) with an N-terminal GFP tag (human) (UniProt Q07864); assay: as above
[5] = biological target: Mcm3 with a TAP tag (S. cerevisiae (endogenous in W303-1a derived strains)) (UniProt P24279); assay: co-IP; Mcm3-TAP cells released into S phase for 30 min and treated with formaldehyde; anti-TAP beads; immunoblotting; also following replication stress (Supplementary Figure S4E)

| Substance | binding [1] | binding [2] | binding [3] | binding [4] | binding [5] |
| --- | --- | --- | --- | --- | --- |
| Ctf18 (human, endogenous in HeLa cells) (from UniProt Q8WVB6 1-975) | no binding | binds | binds | no binding |  |
| Ctf18-RFC from the ctf18-RAA dcc1WH3Δ strain (from UniProt P49956 1-741; P25559 1-318; P38877 1-133; P40348 1-353; P38629 1-340; P40339 1-323; P38251 1-354) (complex) |  |  |  |  | binds weakly |
| Ctf18-RFC from the ctf18-RAA strain (ctf18 V730R, R731A, K732A) (from UniProt P49956 1-741; P25559 1-380; P38877 1-133; P40348 1-353; P38629 1-340; P40339 1-323; P38251 1-354) (complex) |  |  |  |  | binds weakly |
| PCNA (from UniProt P15873 1-258) |  |  |  |  | binds |
